From the supplement of paper PMC11417369
The other results are listed elsewhere or left out.

Each sequence was assayed on PF3D7_0420300 AP2 domain 1 (GST-tagged) (assay: gcPBM binding intensity (ln(normalized median fluorescence intensity)); higher = stronger DNA binding).
Procedure, shortened: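 After 1 h on an Agilent 4 × 180k array of primer-extended double-stranded 36-bp intergenic genomic probes and negative controls, bound GST-tagged P. falciparum DNA-binding domains were detected with Alexa488 anti-GST antibody and scanned at 488 nm. The domains had been expressed in E. coli, and binding took place in 1× PBS with 1% milk, 0.2 mg/ml BSA, 0.5% salmon testes DNA and 0.03% Triton X-100. Binding intensity is the highest Masliner-normalised natural-log median intensity across replicate spots of either probe orientation.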

Sequence	gcPBM binding intensity (ln)
TATAAACATAAATATACACACAAACATATATGTATT [CACACA_site8324]	9.85
CGTTTCCCCAATGGTTGTACAATATATATATATATA [XGTACX_site8641]	9.47
AGACATATAATATATACACACATATATATATATATA [CACACA_site1066]	9.36
TTGTGTTTTATTATTTTATTATTACTATTATAATGT [GTGCAC_negctrl_site484]	9.62
ATAAAACATAAATACATACACACATAATATATATTA [CACACA_site110]	9.88
TAAAAATGGGTATGTACACACTTTATTTTTAATACA [CACACA_site5404]	9.24
TGTAATGTTTACAACACACAAATTAGAAATACAAAA [CACACA_site6924]	9.34
AAGGAAGATATATACACACATACAAATATATATATA [CACACA_site2181]	9.8
ACATATTTAAAAACATGTACAAATATATTTATAATT [XGTACX_site661]	9.17
ATATTTTATTTATATACACACACATATATATATTAT [CACACA_site8177]	9.78
TTCTTTATATACAAACCAAAATATTATGTATAATAA [CACACA_negctrl_site15]	8.93
CTTTATATAAAATAAAGTACATAAATTATGATATAT [XGTACX_site3699]	9.09
TAATTTTTTTTTATGATACACACTTGGATAATTAAA [CACACA_site562]	9.07
TTATTATATATTTTATTTATTAATAGTATATATTAT [TGCATGCA_negctrl_site155]	9.18
TTATTCTAGTAGTGTGTGCGCATGGACAATGCAATA	9.52
ATACATATAATATATGCATGTACCAATCAAATATAT [TGCATGCA_site192]	9.17
TATATATCGTTATATACACACATGTATATAAAAAAT [CACACA_site7501]	9.58
AATATTTGCCTATGTTGTACTGACATTTTTTTAAGT [XGTACX_site6836]	9.43
TATATACACATGCGCACACACAAGTGGGAAATTTGG [CACACA_site6930]	9.71

Sequence	gcPBM binding intensity (ln)
ATATATAATATATGATGTACTTAATAATTTTTTTTT [XGTACX_site5715]	9.03
TTAAGGATCCACGATACACACATATCATTCAACAAA [CACACA_site1924]	9.43
TAATAATCCACAAGCACACACACACCCATATATATA [CACACA_site1267]	10
TTAACCTTTATATAATACGTATCATCCTCATATATA [CACACA_negctrl_site86]	9.34
TGTATATATTTGTGCACACCAAAGTTTGATTTTATT [CACACA_site1860]	9.74
ATATAAAATCAACAAAAAAAAAAAATATATATATAT [XGTACX_negctrl_site251]	9.08
TTATATTTTTTAATTACACACAATTCTTATAAATAT [CACACA_site7870]	9.35
TATTATAACTAAAAAAATCACATAAAATACTTTATT [CACACA_negctrl_site2]	9.1
TTAAATTACTAATGTGCACACATACTAACGTTTAAA [CACACA_site3573]	9.26
TATCTTATTTTATCTCGTACATAAAATTAAAAAATT [XGTACX_site3636]	8.99
AATATGTATCCATACACACATACATTTTATTTGCAA [CACACA_site874]	9.5
TTTTATTTATTATTTACACACACGTAGGTGTCCATA [CACACA_site430]	9.77
TTTTGACATTAATTACTATAGTGTTCTTATAAAATT [TGCATGCA_negctrl_site589]	9.33
CATTTTATTTTAATATGTACTTAAAGAAAAAAAATT [XGTACX_site7670]	8.93
AATACATAAAAATAAAAATAAAATATAACTAATATG [CACACA_negctrl_site186]	9.5
TTATACATATATTTAACACACATTTTATAAAGTGCC [CACACA_site1314]	9.29
AATCGATAAAATGTTGTGCACATATTTTTATATTTA [GTGCAC_site9651]	9.26
AAAACTATAATGAATAGTACATAAAAATGGATATAT [XGTACX_site6056]	9.52
TAAAAAAAAAAAAAAGTACACACTTATAAAATATTA [CACACA_site872]	9.23

Sequence	gcPBM binding intensity (ln)
ATATATTTTTTGAATACACACATATTATATGTAATA [CACACA_site1256]	9.38
ACAAATGAGATTATATGTACACATAACAAATTTACA [XGTACX_site3496]	9.41
AAATGTAAAATTTTATGTACATATATTTATATAATA [XGTACX_site3737]	9.1
GTTACACCAACAAACACACACACACCGACACCCAAA [CACACA_site5361]	10.1
TTTATTTATTTAATTACACACGAACATATAACCATT [CACACA_site7952]	9.37
ATGTTTTATAAAAGGCGTACACATATATTTAAGTAA [XGTACX_site6231]	9.36
TTCATTCTATAAAACACACAAATATTTTTGTATCCC [CACACA_site6458]	9.2
TTTTGTGATCTTACCACCTTTCATAATATTAATAAA [GTGCAC_negctrl_site360]	9.25
ATAGAACAATTCAGAAGTACATAAAAAGAAAAATTT [XGTACX_site3015]	9.35
TTGGATGATTAAGGGGGACACACGTTTATATATTTA [CACACA_site338]	9.64
ATATATTTTAATGATACACACAAGAAATAAAATTAC [CACACA_site5671]	9.6
ACTTTTTTAATGTTACGTACACATAAATAATAATTA [XGTACX_site8092]	9.23
TTTCACAAATGATATAGTACTTTTTATTATTAACAT [XGTACX_site7976]	9.17
GTTATTAAAAACGGGTGTACACATATATAAATATAT [XGTACX_site1234]	9.38
TATTTATTATAAAAATTGTATAAAATAATAATGCTC [GTGCAC_negctrl_site456]	9.18
AAATTGGGGCTTGTTACACACTTAGTGTGAGTTCTA [CACACA_site6417]	9.53
ATTTATAATATGTATACACACACATATATAAATATA [CACACA_site8729]	9.59
TTCTCATCCTTACATACACACACATATATATATATA [CACACA_site7914]	9.98
